These are yes or no findings as the source states them, for the method shown. Some entries that bind do so weakly or less than the wild type.
T1: C-terminal portion of AIP1 containing the DUF724 domain (Arabidopsis thaliana) (UniProt Q8H0V4)
T1 sequence: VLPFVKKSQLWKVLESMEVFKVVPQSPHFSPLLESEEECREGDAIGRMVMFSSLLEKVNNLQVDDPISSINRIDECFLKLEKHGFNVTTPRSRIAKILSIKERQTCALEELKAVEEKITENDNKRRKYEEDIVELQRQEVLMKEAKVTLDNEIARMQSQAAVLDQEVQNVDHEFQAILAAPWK


Biological target: T1, C-terminal portion of AIP1 containing the DUF724 domain (Arabidopsis thaliana)
Test: two-hybrid; S. cerevisiae PJ694 co-transformed; selection on -leu/-trp/-his or -leu/-trp/-his/-ade, 3 days at 30 °C; C-terminal portion of AIP1 (DUF724) fused with GAL4 AD against GAL4 DBD fusions (Additional File 4); Additional File 10 calls the AIP1 portion the bait

Row | binding | Binder
1 | no binding | MCM3 (protein, UniProt Q9FL33 1-776) MDVPEETRLRHKRDFIQFLDSMYMEEIKALVHQKRHRLIINISDIHHHFREVASRILKNPNEYMQSFCDAATEATRAIDPKYLKEGELVLVGFEGYFVSRVVTPRELLSDFIGSMVCVEGIVTKCSLVRPKVVKSVHFCPSTGEFTNRDYRDITSHAGLPTGSVYPTRDDKGNLLVTEYGLCKYKDHQTLSIQEVPENAAPGQLPRSVDVIAEDDLVDSCKPGDRVSVFGIYKALPGKSKGSVNGVFRTILIANNIALLNKEANAPIYTKQDLDNIKNIARRDDAFDLLARSLAPSIYGHAWIKKAVVLLMLGGVEKNLKNGTHLRGDINMMMVGDPSVAKSQLLRAIMNIAPLAISTTGRGSSGVGLTAAVTSDQETGERRLEAGAMVLADKGIVCIDEFDKMNDQDRVAIHEVMEQQTVTIAKAGIHASLNARCSVVAAANPIYGTYDRSLTPTKNIGLPDSLLSRFDLLFIVLDQMDAGIDSMISEHVLRMHRYKNDRGEAGPDGSLPYAREDNAESEMFVKYNQTLHGKKKRGQTHDKTLTIKFLKKYIHYAKHRITPKLTDEASERIAEAYADLRNAGSDTKTGGTLPITARTLETIIRLATAHAKMKLSSEVTKADAEAALKLMNFAIYHQELTEMDDREQEERQREQAEQERTPSGRRGNQRRNNEDGAENDTANVDSETADPMEVDEPSVEQFSGTVSAARIETFERVFGQHMRTHRLDDISIADIETVVNNNGVGASRYSADEIMALLEKLQDDNKVMISDGKVHII
2 | binds | N-terminal region of ABAP1 including the armadillo domains (aa 1-400) (domain or fragment, UniProt B7U179 1-400) MIISKSFKAPLKFSVKSSTAPVISNHPPMENHPKRQRTTRLAARNLKRKLSHNTDGAPIVTQLIDIDDEPIDLVVAIRRHVEVLNSSFSDPDFDHEAVKEAAADIADLAKIDENVEIIVENGAIPALVRYLESPLVVCGNVPKSCEHKLEKDCALALGLIAAIQPGYQQLIVDAGAIVPTVKLLKRRGECGECMFANAVIRRAADIITNIAHDNPRIKTNIRVEGGIAPLVELLNFPDVKVQRAAAGALRTVSFRNDENKSQIVELNALPTLVLMLQSQDSTVHGEAIGAIGNLVHSSPDIKKEVIRAGALQPVIGLLSSTCLETQREAALLIGQFAAPDSDCKVHIAQRGAITPLIKMLESSDEQVVEMSAFALGRLAQDAHNQAGIAHRGGIISLLNL
3 | no binding | TCP24 (protein, UniProt Q9C758 1-324) MEVDEDIELQKHQEQQSRKLQRFSEDNTGLMRNWNNPSSRIIRVSRASGGKDRHSKVLTSKGLRDRRIRLSVATAIQFYDLQDRLGFDQPSKAVEWLINAASDSITDLPLLNTNFDHLDQNQNQTKSACSSGTSESSLLSLSRTEIRGKARERARERTAKDRDKDLQNAHSSFTQLLTGGFDQQPSNRNWTGGSDCFNPVQLQIPNSSSQEPMNHPFSFVPDYNFGISSSSSAINGGYSSRGTLQSNSQSLFLNNNNNITQRSSISSSSSSSSPMDSQSISFFMATPPPLDHHNHQLPETFDGRLYLYYGEGNRSSDDKAKERR
4 | no binding | MCM7 (protein, UniProt P43299 1-716) MKDHDFDGDKGLAKGFLENFADANGRSKYMEILQEVSNRKIRAIQVDLDDLFNYKDESEEFLGRLTENTRRYVSIFSAAVDELLPEPTEAFPDDDHDILMTQRADDGTDNPDVSDPHQQIPSEIKRYYEVYFKAPSKGRPSTIREVKASHIGQLVRISGIVTRCSDVKPLMAVAVYTCEDCGHEIYQEVTSRVFMPLFKCPSSRCRLNSKAGNPILQLRASKFLKFQEAKMQELAEHVPKGHIPRSMTVHLRGELTRKVSPGDVVEFSGIFLPIPYTGFKALRAGLVADTYLEATSVTHFKKKYEEYEFQKDEEEQIARLAEDGDIYNKLSRSLAPEIYGHEDIKKALLLLLVGAPHRQLKDGMKIRGDVHICLMGDPGVAKSQLLKHIINVAPRGVYTTGKGSSGVGLTAAVMRDQVTNEMVLEGGALVLADMGICAIDEFDKMDESDRTAIHEVMEQQTVSIAKAGITTSLNARTAVLAAANPAWGRYDLRRTPAENINLPPALLSRFDLLWLILDRADMDSDLELAKHVLHVHQTEESPALGFEPLEPNILRAYISAARRLSPYVPAELEEYIATAYSSIRQEEAKSNTPHSYTTVRTLLSILRISAALARLRFSESVAQSDVDEALRLMQMSKISLYADDRQKAGLDAISDTYSIIRDEAARSKKTHVSYANALNWISRKGYSEAQLKECLEEYAALNVWQIDPHTFDIRFI

Further lines, the binder ahead of its results:

Row | Binder | binding
5 | Armadillo BTB Arabidopsis Protein 1 (ABAP1), full-length CDS (protein, UniProt B7U179 1-737) MIISKSFKAPLKFSVKSSTAPVISNHPPMENHPKRQRTTRLAARNLKRKLSHNTDGAPIVTQLIDIDDEPIDLVVAIRRHVEVLNSSFSDPDFDHEAVKEAAADIADLAKIDENVEIIVENGAIPALVRYLESPLVVCGNVPKSCEHKLEKDCALALGLIAAIQPGYQQLIVDAGAIVPTVKLLKRRGECGECMFANAVIRRAADIITNIAHDNPRIKTNIRVEGGIAPLVELLNFPDVKVQRAAAGALRTVSFRNDENKSQIVELNALPTLVLMLQSQDSTVHGEAIGAIGNLVHSSPDIKKEVIRAGALQPVIGLLSSTCLETQREAALLIGQFAAPDSDCKVHIAQRGAITPLIKMLESSDEQVVEMSAFALGRLAQDAHNQAGIAHRGGIISLLNLLDVKTGSVQHNAAFALYGLADNEENVADFIKAGGIQKLQDDNFTVQPTRDCVVRTLKRLQNKIHGPVLNQLLYLMRTAEKTVQIRIALALAHLCDPKDGKLIFIDNNGVEFLLELLYFSSNKQQRYSSSALYELAKKATSFAPEDSAPCSPTQQVFLGEKFVNNPTMSDVTFLIDGKQFYAHKIGLVASSDIFRAMFDGLYKERNAQNVEIPNIRWEVFELMMKFIYSGRINIAKHLAKDLLVAADQYLLEGLKRQCEYTIAQEICLDNIPEMYELADTFNASALRRACTLFVLEHFTKLSSQLWFAKFVKQIIPEIRSYMTDILTRPVEASPPTVV | binds
6 | ARIA, full-length CDS (protein, UniProt B9DHT4 1-710) MDQQPERREGRSFPERKGQKRKLEEGAAAVEDREISAVSTDGGQALLSEVAAQVSVLNSAFSWQESDRAAAKRATQVLAELAKNEDLVNVIVDGGAVPALMTHLQAPPYNDGDLAEKPYEHEVEKGSAFALGLLAIKPEYQKLIVDKGALPHLVNLLKRNKDGSSSRAVNSVIRRAADAITNLAHENSSIKTRVRVEGGIPPLVELLEFSDSKVQRAAAGALRTLAFKNDDNKNQIVECNALPTLILMLGSEDAAIHYEAVGVIGNLVHSSPHIKKEVLTAGALQPVIGLLSSCCPESQREAALLLGQFASTDSDCKVHIVQRGAVRPLIEMLQSPDVQLKEMSAFALGRLAQDAHNQAGIAHSGGLGPLLKLLDSRNGSLQHNAAFALYGLADNEDNVSDFIRVGGIQKLQDGEFIVQATKDCVSKTLKRLEEKIHGRVLRHLLYLMRISEKSIQRRVALALAHLCSPEDQRTIFIDDNGLELLLGLLGSLNTKQQLDGAAALYKLANKSMALSPVDAAPPSPTQRVYLGEQYVNNATLSDVTFLVEGRTFYAHRICLLASSDAFRAMFDGGYREKDARDIEIPNIKWEVFELMMRFIYTGSVDITNEISKDLLRAADQYLLEGLKRLCEYTIAQDITLESIGDMYELSEAFHAMSLRQACIMFILEHFDKLSSMPWQNELVQRTIPEIREYFCRALTKSTTNLQSLRL | binds
7 | LHP1, full-length CDS (protein, UniProt Q946J8 1-445) MKGASGAVKKKPQVLNEAGEAETAVETVGESRKISGDGGFGSDDGGGGGGGGSGESILREIGDDRPTEDGDEEEEEDEDEDDGGDEEDEEGEGEGGQEERPKLDEGFYEIEAIRRKRVRKGKVQYLIKWRGWPETANTWEPLENLQSIADVIDAFEGSLKPGKPGRKRKRKYAGPHSQMKKKQRLTSTSHDATEKSDSSTSLNNSSLPDIPDPLDLSGSSLLNRDVEAKNAYVSNQVEANSGSVGMARQVRLIDNEKEYDPTLNELRGPVNNSNGAGCSQGGGIGSEGDNVRPNGLLKVYPKELDKNSRFIGAKRRKSGSVKRFKQDGSTSNNHTAPTDQNLTPDLTTLDSFGRIARMGNEYPGVMENCNLSQKTKIEELDITKILKPMSFTASVSDNVQEVLVTFLALRSDGKEALVDNRFLKAHNPHLLIEFYEQHLKYNRTP | binds weakly
8 | MCM2 (protein, UniProt Q9LPD9 1-936) MAGENSDNEPSSPASPSSAGFNTDQLPISTSQNSENFSDEEEAAVDTQVIRDEPDEAEDEEEEEGEDLFNDTFMNDYRKMDENDQYESNGIDDSVDDERDLGQAMLDRRAADADLDARENRLANRKLPHLLHDNDSDDWNYRPSKRSRTTVPPRGNGGDPDGNPPSSPGVSQPDISMTDQTDDYQDEDDNDDEAEFEMYRIQGTLREWVMRDEVRRFIAKKFKDFLLTYVKPKNENGDIEYVRLINEMVSANKCSLEIDYKEFIHVHPNIAIWLADAPQPVLEVMEEVSEKVIFDLHPNYKNIHTKIYVRVTNLPVNDQIRNIRQIHLNTMIRIGGVVTRRSGVFPQLQQVKYDCNKCGAVLGPFFQNSYSEVKVGSCSECQSKGPFTVNVEQTIYRNYQKLTIQESPGTVPAGRLPRHKEVILLNDLIDCARPGEEIEVTGIYTNNFDLSLNTKNGFPVFATVVEANYVTKKQDLFSAYKLTQEDKTQIEELSKDPRIVERIIKSIAPSIYGHEDIKTALALAMFGGQEKNIKGKHRLRGDINVLLLGDPGTAKSQFLKYVEKTGQRAVYTTGKGASAVGLTAAVHKDPVTREWTLEGGALVLADRGICLIDEFDKMNDQDRVSIHEAMEQQSISISKAGIVTSLQARCSVIAAANPVGGRYDSSKSFAQNVELTDPILSRFDILCVVKDVVDPVTDEMLAEFVVNSHFKSQPKGGKMEDSDPEDGIQGSSGSTDPEVLPQNLLKKYLTYSKLYVFPKLGELDAKKLETVYANLRRESMNGQGVSIATRHLESMIRMSEAHARMHLRQYVTEEDVNMAIRVLLDSFISTQKFGVQRTLRESFKRYITYKKDFNSLLLVLLKELVKNALKFEEIISGSNSGLPTIEVKIEELQTKAKEYDIADLRPFFSSTDFSKAHFELDHGRGMIKCPKRLITW | no binding
9 | C-terminal region of ABAP1 containing the BTB-POZ domain (aa 401-737) (domain or fragment, UniProt B7U179 401-737) LDVKTGSVQHNAAFALYGLADNEENVADFIKAGGIQKLQDDNFTVQPTRDCVVRTLKRLQNKIHGPVLNQLLYLMRTAEKTVQIRIALALAHLCDPKDGKLIFIDNNGVEFLLELLYFSSNKQQRYSSSALYELAKKATSFAPEDSAPCSPTQQVFLGEKFVNNPTMSDVTFLIDGKQFYAHKIGLVASSDIFRAMFDGLYKERNAQNVEIPNIRWEVFELMMKFIYSGRINIAKHLAKDLLVAADQYLLEGLKRQCEYTIAQEICLDNIPEMYELADTFNASALRRACTLFVLEHFTKLSSQLWFAKFVKQIIPEIRSYMTDILTRPVEASPPTVV | no binding
